Reference: the supplement of paper PMC8183993
Several values for one entry are separate records, joined by “and”; a condition that tells them apart may be missing. Identical values can stand only once. Counter-ions that a name gives are not always drawn. ± gives the standard deviation of the averaged measurements. Over roughly 3,200 compounds, “nuclei count (viability) relative to DMSO” has its median near 99; the lowest 2% begin near 16. The list shows a part of the results.

The molecules below were run on U2OS (assay: nuclei count (viability) relative to DMSO (% of DMSO); higher = more viable cells). Conditions: 10 µM; 24 h.
Procedure: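 Primary image-based screen in U2OS cells: compounds at 10 uM for 24 h, then a 1 h o-propargyl-puromycin (OPP) pulse, click labelling, and high-throughput microscopy. Mean cytoplasmic OPP intensity and nuclei count were normalised to DMSO wells within each plate (DMSO = 100) and averaged over triplicate plates.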

Structure (SMILES)	nuclei count
CCN1CC(CCN2CCOCC2)C(c2ccccc2)(c2ccccc2)C1=O (centres undefined) [Doxapram HCl]	102
O=C(c1cc(O)c(O)c(O)c1)c1ccc(O)c(O)c1O [Exifone]	94.1
Cc1c(C(=O)NN2CCOCC2)nn(-c2ccc(Cl)cc2Cl)c1-c1ccc(I)cc1	98.3
Cc1cnc(CNC(=O)c2c(=O)c3ccc(N4CCCN(C)CC4)nc3n3c2sc2ccccc23)cn1	60.8
CN(C)Cc1cccc(N/C(=C2\C(=O)Nc3cc(C(N)=O)ccc32)c2ccccc2)c1	102
CC(=O)N[C@H]1[C@H]([C@H](O)[C@H](O)CO)OC(C(=O)O)=C[C@@H]1NC(=N)N [Zanamivir (Relenza)]	101
CC(C)Oc1ccc2c(=O)c3cc(C(=O)O)ccc3oc2c1	103
Nc1ncnc2c1ncn2[C@@H]1O[C@H](COP(=O)(O)OP(=O)(O)OP(=O)(O)O)[C@@H](O)[C@H]1O [ATP (Adenosine-Triphosphate)]	106
CC(=O)[C@H]1CC[C@H]2[C@@H]3C[C@H](C)C4=CC(=O)CC[C@]4(C)[C@H]3[C@@H](O)C[C@]12C [Medrysone]	108
CCOC(=O)OC(C)OC1=C(C(=O)Nc2ccccn2)N(C)S(=O)(=O)c2ccccc21 (centres undefined) [Ampiroxicam]	101
O=C(Nc1c(Cl)cncc1Cl)c1ccc(OC(F)F)c(OCC2CC2)c1 [Roflumilast (Daxas)]	102
CCCS(=O)(=O)Nc1ccc(F)c(C(=O)c2c[nH]c3ncc(-c4ccc(Cl)cc4)cc23)c1F [Vemurafenib (PLX4032)]	104 ± 5.7
C[C@@H]1O[C@@H](O[C@H]2[C@H](Oc3cc(O)c(C(=O)CCc4ccc(O)cc4)c(O)c3)O[C@H](CO)[C@@H](O)[C@@H]2O)[C@H](O)[C@H](O)[C@H]1O [Naringin Dihydrochalcone (Naringin DC)]	96.5
C[N+](C)([O-])CCNc1ccc(NCC[N+](C)(C)[O-])c2c1C(=O)c1c(O)ccc(O)c1C2=O [Banoxantrone dihydrochloride]	51.2
CCCCNC(=O)NS(=O)(=O)c1ccc(C)cc1 [Tolbutamide]	95.6 ± 7.2
O=C(O)c1cc(-c2ccc(F)cc2F)ccc1O [Diflunisal]	105
c1ccc2c(-c3ccncc3)c[nH]c2c1 [Rockout]	105
CC(C)(C)NC[C@H](O)c1ccc(O)c(CO)c1 [Levalbuterol hydrochloride]	108
CCn1cc(C(=O)O)c(=O)c2cnc(N3CCCC3)nc21 [Piromidic acid]	100
COc1ccc(Nc2ncnc3ccc(OC)cc23)cc1 [MPMQ hydrochloride]	106
O=S(=O)(O)CCS [Mesna]	107
Cc1nc(NC(=O)N2CCC[C@H]2C(N)=O)sc1-c1ccnc(C(C)(C)C(F)(F)F)c1	82.8 ± 5.8
COc1ccc2cc([C@@H](C)C(=O)O)ccc2c1 [(R) -Naproxen sodium salt]	101
Nc1nc(=O)c2c([nH]1)NC[C@@H](CNc1ccc(C(=O)N[C@@H](CCC(=O)O)C(=O)O)cc1)N2C=O [Folinic acid calcium salt]	84.6
CC(C)NCC(O)COc1cccc2ccccc12 (centres undefined) [Propranolol hydrochloride]	103

Structure (SMILES)	nuclei count
CCCCC(CC)CNC(=N)NC(=N)NCCCCCCNC(=N)NC(=N)NCC(CC)CCCC (centres undefined) [Alexidine dihydrochloride]	6.87
Oc1c2ccccc2c2c3c(cccc13)N=N2	73.8 and 92.7
COC(=O)[C@@H]1[C@H]2C[C@H]3c4[nH]c5ccccc5c4CCN3C[C@@H]2CC[C@@H]1O [Yohimbine hydrochloride]	103 ± 2
CC(C)C[C@H](NC(=O)[C@H]1O[C@@H]1C(=O)O)C(=O)NCCCCN=C(N)N	94.5
Cc1[nH]c(/C=C2\C(=O)Nc3ccc(S(=O)(=O)N(C)c4cccc(Cl)c4)cc32)c(C)c1C(=O)N1CCN(C)CC1	52.4
CN(C)Cc1ccc(-c2nc3cccc4c3n2CCNC4=O)cc1	81
CC1(C)NC(=O)N(c2ccc([N+](=O)[O-])c(C(F)(F)F)c2)C1=O [Nilutamide]	113 ± 9.4
N[C@@H](CC(=O)Nc1ccc(Oc2cc(F)c(F)cc2Br)cc1)C(=O)O	103
Cc1coc2c1C(=O)C(=O)c1c-2ccc2c(C)cccc12 [Tanshinone I]	98.3
CCC1=C(C)CN(C(=O)NCCc2ccc(S(=O)(=O)NC(=O)N[C@H]3CC[C@H](C)CC3)cc2)C1=O [Glimepiride]	102 ± 4.4
C[C@@]12C[C@@]3(O)O[C@@H](O1)[C@]1(COC(=O)c4ccccc4)[C@H]3C[C@@]12O[C@@H]1O[C@H](CO)[C@@H](O)[C@H](O)[C@H]1O [Paeoniflorin]	95.6
CCS(=O)(=O)CCn1c([N+](=O)[O-])cnc1C [Tinidazole]	109
N#C[C@@H]1C[C@@H]2C[C@@H]2N1C(=O)[C@@H](N)C12CC3CC(CC(O)(C3)C1)C2	104
O=C1CCc2cc(OCCCCc3nnnn3C3CCCCC3)ccc2N1 [Cilostazol]	107 ± 6.1
O=P(O)(O)C(Cl)(Cl)P(=O)(O)O [Clodronate]	104
Oc1ccc(-c2nc3cc(O)cc(Br)c3o2)cc1	96.3
CCCCOc1cc(C(=O)NCCN(CC)CC)c2ccccc2n1 [Dibucaine]	101
C[C@H](CC[C@@H]1OC1(C)C)[C@H]1CC[C@H]2[C@@H]3CC=C4C[C@@H](O)CC[C@]4(C)[C@H]3CC[C@]12C [24(S),25-Epoxycholesterol]	107
COc1ccc2cc1Oc1ccc(cc1)C[C@H]1c3cc(c(OC)cc3CCN1C)Oc1c(OC)c(OC)cc3c1[C@H](C2)N(C)CC3 [Tetrandrine]	96.9
COc1ccc2cc1Oc1ccc(cc1)C[C@H]1c3cc(c(OC)cc3CCN1C)Oc1c(OC)c(OC)cc3c1[C@H](C2)N(C)CC3 [Tetrandrine (Fanchinine)]	101
Cc1c[nH]c(=O)n(CCCN2CCN(c3ccccc3OCC(F)(F)F)CC2)c1=O	105
Nc1ncnc2c1c(-c1cnc3[nH]ccc3c1)nn2C1CCCC1	40.1
C[C@]12CC[C@@H]3c4ccc(O)cc4CC[C@H]3[C@@H]1CCC2=O [Estrone]	96.6 ± 4.3
COC(=O)c1c(-c2cc(OC)c(OC)c(OC)c2)c2ccnc(OCc3ncccn3)c2c(=O)n1Cc1ccnc(C)c1 [T 0156 hydrochloride]	107
c1ccc(N2CCN(Cc3nc4ccccc4[nH]3)CC2)nc1 [ABT 724 trihydrochloride]	99.2

Structure (SMILES)	nuclei count
CN(C)[C@@H]1C(O)=C(C(N)=O)C(=O)[C@@]2(O)C(O)=C3C(=O)c4c(O)ccc(Cl)c4[C@@](C)(O)[C@H]3C[C@@H]12 [Chlortetracycline hydrochloride]	93.4
CC(C)[C@H](N)C(=O)N[C@H](C(=O)N[C@H](C(=O)O)C(C)C)C(C)C	90.3
CC(=O)N(CC(C)C(=O)O)c1c(I)cc(I)c(N)c1I (centres undefined) [Iocetamic acid]	82.5
CCCCCCCCc1ccc(CCC(N)(CO)CO)cc1 [Fingolimod (FTY720)]	18.9 ± 0.71
CCCCC(C)(O)C/C=C/[C@H]1[C@H](O)CC(=O)[C@@H]1CCCCCCC(=O)OC (mixture of isomers) [Misoprostol]	103
CNCCC(Oc1ccccc1OC)c1ccccc1 (centres undefined) [Nisoxetine hydrochloride]	93.6 ± 5.6
COc1ccccc1O [Guaiacol]	101
O=NN(CCCl)C(=O)NC1CCCCC1 [Lomustine (CeeNU)]	109
COc1cc(CCC(C)=O)ccc1O [Vanillylacetone]	88.4
O=C(O)CCC(=O)Nc1ccc(S(=O)(=O)Nc2nccs2)cc1 [Succinylsulfathiazole]	111
COc1cnc(NS(=O)(=O)c2ccc(N)cc2)nc1 [Sulfameter]	103
Cn1cnnc1Sc1c([N+](=O)[O-])ncn1C	108
Cc1cccc(CN2CCN(C(c3ccccc3)c3ccc(Cl)cc3)CC2)c1 (centres undefined) [Meclozine dihydrochloride]	103
CC(C)c1cc(C(=O)N2Cc3ccc(CN4CCN(C)CC4)cc3C2)c(O)cc1O	55.3
CCOC(=O)C1=C[C@]2(CC)CCCN3CCc4c(n1c1ccccc41)[C@@H]32 [Vinpocetine]	97.5 ± 9.1
CCOC(=O)C1=C[C@]2(CC)CCCN3CCc4c(n1c1ccccc41)[C@@H]32 [Vinpocetine (Cavinton)]	102
CS(=O)(=O)CCNCc1nc(-c2ccc3ncnc(Nc4ccc(OCc5cccc(F)c5)c(Cl)c4)c3c2)cs1	95.3
COc1ccc(-c2cc(=O)c3c(O)cc(O[C@@H]4O[C@H](CO[C@@H]5O[C@@H](C)[C@H](O)[C@@H](O)[C@H]5O)[C@@H](O)[C@H](O)[C@H]4O)cc3o2)cc1O [Diosmin]	101 ± 1.4
COc1cc(Nc2ncc(F)c(Nc3ccc4c(n3)N(COP(=O)(O)O)C(=O)C(C)(C)O4)n2)cc(OC)c1OC [R788 (Fostamatinib)]	26.9
COc1cc(Nc2ncc(F)c(Nc3ccc4c(n3)N(COP(=O)(O)O)C(=O)C(C)(C)O4)n2)cc(OC)c1OC	69.4
Cc1nnc(C(C)C)n1C1C[C@H]2CC[C@@H](C1)N2CC[C@H](NC(=O)C1CCC(F)(F)CC1)c1ccccc1 (stereo in doubt) [Maraviroc]	97.7
CCCCCCCN(CC)CCCC(O)c1ccc(NS(C)(=O)=O)cc1 (centres undefined) [Ibutilide fumarate]	106
Cn1c(=O)cc(N2CCC[C@@H](N)C2)n(Cc2ccccc2C#N)c1=O [Alogliptin (SYR-322)]	107
Cn1cc(-c2ccc3nnc(C(F)(F)c4ccc5ncccc5c4)n3n2)cn1	108
